Measurements reported in PubChem BioAssay AID588342 (National Center for Advancing Translational Sciences (NCATS), 2011).
Values joined by “and” are separate entries in the source; they are usually repeats but may differ in a detail not shown here. Equal entries are not always repeated. Screen size: about 360,000 compounds; about 25,000 (6.9%) were called active. Inconclusive means that the source gave no clear call. Such entries were picked first, then a sample of the others. Calls follow the shape of the dose curve; as a rule, active = well fitted inhibition curve with a large enough effect; inconclusive = small, poorly fitted or top-dose-only effect; inactive = flat fitted curve, though single readings scatter. Where the call is inconclusive, the potency comes from a doubtful curve fit. The source holds several records for some structures; these can differ, active in one and inactive in another.

biological target: Luciferin 4-monooxygenase (Photinus pyralis) (UniProt P08659); assay: qHTS profiling assay for firefly luciferase inhibitor/activator using purifed enzyme and Km concentrations of substrates (counterscreen for miR-21 project); details: purified FLuc, luminescence inhibition; series mostly up to 57.5 µM; also: nearly all actives have a fitted effect of over 55% in size
How it was run: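 Purified P. pyralis luciferase, 10 nM final, with Km-level 10 uM D-luciferin and 10 uM ATP in 50 mM Tris acetate pH 7.5, 10 mM Mg acetate, 0.01% Tween-20, 0.05% BSA; 6-point qHTS titration about 60 µM downward; luminescence read.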
Potency is read from the fitted curve at half-maximal effect; tags tell the direction and shape of the fitted curve.

UniProt P08659, sequence (P08659 whole entry, looked up): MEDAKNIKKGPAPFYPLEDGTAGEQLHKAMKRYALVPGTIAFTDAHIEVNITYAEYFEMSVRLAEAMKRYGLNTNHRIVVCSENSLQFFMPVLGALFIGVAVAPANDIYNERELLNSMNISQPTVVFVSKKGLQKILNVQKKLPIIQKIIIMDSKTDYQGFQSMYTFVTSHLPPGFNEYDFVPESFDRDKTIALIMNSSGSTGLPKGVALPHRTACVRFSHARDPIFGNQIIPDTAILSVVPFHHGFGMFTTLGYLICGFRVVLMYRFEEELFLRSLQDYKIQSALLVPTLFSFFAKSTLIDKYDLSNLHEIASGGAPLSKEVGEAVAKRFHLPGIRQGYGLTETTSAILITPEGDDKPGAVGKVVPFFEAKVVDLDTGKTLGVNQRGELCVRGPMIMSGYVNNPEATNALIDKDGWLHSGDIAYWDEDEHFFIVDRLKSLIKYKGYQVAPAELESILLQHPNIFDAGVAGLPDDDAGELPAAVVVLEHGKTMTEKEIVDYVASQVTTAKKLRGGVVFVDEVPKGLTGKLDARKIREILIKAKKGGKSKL

Row | Structure (SMILES) | Potency
1 | CC1CN(C(=O)c2ccc(COc3ccc4ccccc4c3)o2)CC(C)O1 (centres undefined) | active: 16.9 µM
2 | Cc1ccc(N=Nc2c(O)[nH]c3ccc(F)cc23)cc1 | inconclusive: 6.01 µM [inhibitor, full curve]
3 | CCOC(=O)c1ccc(S(=O)(=O)Nc2cc(C(=O)O)ccc2Cl)cc1 | inconclusive: 16.9 µM [inhibitor, partial curve]
4 | CSc1ncc(Cl)c(C(=O)Nc2ccc(S(=O)(=O)Nc3nccc(C)n3)cc2)n1 | inactive and active: 10.7 µM
5 | CC(=O)c1ccc(NC(=O)CCc2c(C)nc3c(c2C)c(=O)n(C)c(=O)n3C)cc1 | inactive
6 | COc1cc(NC(=O)CN(C)S(=O)(=O)c2ccc(-c3ccc(=O)[nH]n3)s2)cc(OC)c1 | inactive
7 | N#C/C(=C/c1ccncc1)c1nc2ccccc2c(=O)[nH]1 | inconclusive: 21.3 µM [inhibitor, single point]
8 | O=C(Cc1noc2ccccc12)Nc1ccccn1 | inconclusive: 23.9 µM [inhibitor, single point]
9 | CCCOc1c(Cl)cc(C(=O)NC)cc1OC | inactive
10 | COc1ccccc1-c1nnc(C2CCN(C(=O)c3cccc(C)c3)CC2)o1 | inactive
11 | N/C(=N\OC(=O)CC1CCCCC1)c1ccncc1 | active: 19 µM
12 | Cc1ccc(NC(=O)c2cc(N3CCOCC3)nc3ccccc23)cc1 | inconclusive: 16.9 µM [inhibitor, partial curve, poor fit]
13 | COC(=O)c1ccc(NC(=O)Nc2ccc(F)c(Cl)c2)cc1 | active: 26.9 µM
14 | CCCNC(=O)Nc1ccc(C(F)(F)F)cc1 | inconclusive: 33.8 µM [inhibitor, single point]
15 | CCC1(C)NC(=O)N(/N=C/c2ccc(C)s2)C1=O (centres undefined) | inconclusive: 26.9 µM [inhibitor, single point]
16 | CCO/N=C/C(=O)Nc1ccc(F)cc1F | inactive
17 | O=C(Nc1cccc(S(=O)(=O)N2CCCCC2)c1)c1ccc2c(c1)OCO2 | inconclusive: 21.3 µM [inhibitor, partial curve, poor fit]
18 | COc1ccc(-c2nnc(SCC(=O)Oc3ccc(C)cc3)o2)cc1 | inconclusive: 26.9 µM [inhibitor, partial curve, poor fit]
19 | CCOC(=O)N1CCN(C(=O)C2CCN(c3ncnc4c3sc3cccc(F)c34)CC2)CC1 | inconclusive: 33.8 µM [inhibitor, partial curve, poor fit]
20 | Cc1ccc(NC(=O)COC(=O)/C=C/c2ccc(Br)o2)cc1S(=O)(=O)N(C)C | inconclusive: 37.9 µM [inhibitor, partial curve, poor fit]
21 | Nc1nnc(COc2ccc(Br)cc2Br)s1 | active: 8.49 µM
22 | COc1ccc(-c2cn(-c3ccccc3)c(=S)[nH]2)cc1OC | inconclusive: 37.9 µM [inhibitor, single point]
23 | O=C(Nc1cccc(S(=O)(=O)Nc2ccc(Cl)cc2)c1)c1ccc2c(c1)OCCO2 | active: 16.9 µM
24 | CCOc1ccc(/C=N/N2C(C)CCCC2C)cc1 (centres undefined) | inconclusive: 21.3 µM [inhibitor, single point]
25 | COCC(C)NC(C(=O)Nc1ccc(C)c(Cl)c1)c1ccccc1 (centres undefined) | inconclusive: 30.1 µM [inhibitor, partial curve, poor fit]

Row | Structure (SMILES) | Potency
26 | CCOc1cc(-c2sc(Nc3ccccc3)n[n+]2C)ccc1OC | inactive
27 | O=C1NC(=Nc2ccccc2)S/C1=C\c1cccs1 | active: 12 µM
28 | CN(C)c1cccc(C(=O)Nc2cccc(F)c2)c1 | active: 19 µM
29 | Cc1ccc2nc(N(CCN3CCOCC3)C(=O)CCS(=O)(=O)c3ccccc3)sc2c1 | inactive
30 | c1cncc(-c2nc(-c3ccco3)cs2)c1 | inconclusive: 26.9 µM [inhibitor, partial curve]
31 | CN(Cc1cccc2cnccc12)C(=O)c1cc(COc2ccc(F)cc2Cl)on1 | inconclusive: 26.9 µM [inhibitor, single point]
32 | COC(=O)c1cccc(COC(=O)c2cccnc2SC)c1 | inconclusive: 4.78 µM [inhibitor, partial curve, poor fit]
33 | S=c1[nH]nc(-c2cc(-c3ccccc3)n[nH]2)n1/N=C/C(Br)=C/c1ccccc1 | inactive
34 | COc1cccc(/C=N/NC(=O)CCn2nnc3ccccc32)c1 | inconclusive: 23.9 µM [inhibitor, single point]
35 | N#CC(Cc1ccccc1)(Cc1ccccc1)C(=O)NN | inactive
36 | Cc1cccc(C(=O)N2CCCC(c3nc(-c4ccc(C)o4)no3)C2)c1 (centres undefined) | inconclusive: 21.3 µM [inhibitor, single point]
37 | O=C(NCC(c1cccs1)N1CCOCC1)c1cccnc1 (centres undefined) | inactive
38 | Fc1ccc(-n2ncc3c(Nc4cccc(Cl)c4)ncnc32)cc1 | inconclusive: 37.9 µM [inhibitor, partial curve, poor fit]
39 | CCCc1nn(C)c(C(=O)Nc2cccc(Cl)c2)c1Cl | active: 21.3 µM
40 | COc1cc(OC)cc(-c2nc3nc(C)c(CCC(=O)Nc4ccc(C)cc4C)c(C)n3n2)c1 | inactive
41 | CCCC(=O)Nc1c(-c2ccccc2)c(=O)c(C)nn1-c1ccc(C)cc1 | inactive
42 | O=C1CCc2cc(S(=O)(=O)NCc3ccccc3Cl)cc3c2N1CC3 | inactive
43 | CN(C(=S)NC(=O)Cc1ccccc1)c1ccccc1 | inconclusive: 26.9 µM [inhibitor, partial curve, poor fit]
44 | COc1ccc2c(c1)Sc1ccccc1N2 | inconclusive: 37.9 µM [inhibitor, partial curve, poor fit]
45 | Cc1nnc(NC(=O)C2CCN(S(=O)(=O)c3ccc(F)c(Cl)c3)CC2)o1 | inconclusive: 6.01 µM [inhibitor, full curve, poor fit]
46 | O=C(O[C@@H]1OC2COC(=O)c3cc(O)c(O)c(O)c3-c3c(cc(O)c(O)c3O)C(=O)O[C@@H]([C@H]1O)[C@@H]2O)c1cc(O)c(O)c(O)c1 | inconclusive: 9.53 µM [inhibitor, partial curve]
47 | O=c1[nH]c2ccccc2nc1NCc1ccccc1 | inconclusive: 23.9 µM [inhibitor, partial curve, poor fit]
48 | Cc1ccc(NC(=O)Cn2nc(-c3ccccc3Cl)ccc2=O)c(Br)c1 | inactive
49 | O=C(Nc1nnc(-c2ccccc2F)s1)c1ccccc1F | inconclusive: 1.2 µM [inhibitor, full curve]
50 | Clc1ccc(-c2nnc(-c3cccnc3)o2)cc1 | inconclusive: 26.9 µM [inhibitor, single point]

Row | Structure (SMILES) | Potency
51 | COc1cccc(NC(=O)c2oc3ccccc3c2NC(=O)C2CCCCC2)c1 | inactive
52 | C/C(N)=C(/C#N)C(=O)CSc1nnc(Nc2ccccc2C)s1 | inconclusive: 37.9 µM [inhibitor, partial curve, poor fit]
53 | Cc1ccc(Nc2nnc(-c3ccncc3)s2)c(Br)c1 | inconclusive: 15.1 µM [inhibitor, partial curve]
54 | Cc1nnc(-c2cnn(C)c2N)n1Cc1ccc(Cl)cc1 | inconclusive: 23.9 µM [inhibitor, partial curve, poor fit]
55 | COC(=O)c1cc(NC(=O)c2cc3sccc3n2Cc2ccc(Cl)cc2)cc(C(=O)OC)c1 | inactive
56 | O=C(Nc1csc([N+](=O)[O-])c1)Nc1ccccc1Cl | active: 16.9 µM
57 | COCCCNC(=O)c1ccc2c3c(onc13)-c1ccccc1C2=O | active: 6.01 µM
58 | O=C1CCc2cc(S(=O)(=O)NC(C(=O)Nc3cccc(F)c3)c3ccccc3)ccc2N1 (centres undefined) | inactive
59 | O=C(CCS(=O)(=O)c1ccccc1)Nc1nc2cc3c(cc2s1)OCCO3 | active: 7.57 µM
60 | N#C/C(=N\Nc1cccc(C(F)(F)F)c1)C(=O)c1ccsc1 | inconclusive: 37.9 µM [inhibitor, single point]
61 | CCOc1ccc2nc(SCC(=O)NC(=O)NCc3ccco3)sc2c1 | inconclusive: 30.1 µM [inhibitor, partial curve, poor fit]
62 | COC(=O)COC(=O)c1ccccc1NC(=O)c1ccccc1 | inconclusive: 26.9 µM [inhibitor, partial curve, poor fit]
63 | Cc1c(C(=O)NC(C)c2ccncc2)oc2ccccc12 (centres undefined) | inactive
64 | Oc1ccccc1Nc1nc2ccccc2n2nnnc12 | inconclusive: 37.9 µM [inhibitor, partial curve, poor fit]
65 | CCn1ncc(Br)c1C(=O)Nc1ccc(C(=O)OC(C)C)cc1 | inconclusive: 23.9 µM [inhibitor, partial curve, poor fit]
66 | COc1ccc(-c2[nH]ncc2-c2ccc3c(c2)OCCO3)c(O)c1 | inactive
67 | COCCn1c(=O)[nH]c2cc(C(=O)Nc3nnc(C)s3)ccc21 | active: 13.5 µM
68 | CCn1c(SCC(=O)Nc2ccccc2)nc2nc3c(cc2c1=O)COC(C)(C)C3 | inactive
69 | O=C(c1ccc(=O)n(Cc2ccccc2)n1)N1CCN(C/C=C/c2ccccc2)CC1 | inactive
70 | CCN(CC)C(=O)Nc1ccc(C(=O)OC)cc1 | inconclusive: 30.1 µM [inhibitor, partial curve, poor fit]
71 | O=C(NCc1ccco1)c1ccc2c(c1)N(Cc1ccc(Cl)cc1)C(=O)c1ccccc1S2(=O)=O | inactive
72 | CC(=O)c1cccc(NC(=S)NNC(=O)c2ccco2)c1 | inconclusive: 26.9 µM [inhibitor, single point]
73 | COc1cc(C(=O)Nc2cccc(-c3nc4cc(C)ccc4o3)c2)cc(OC)c1OC | active: 1.69 µM
74 | CN(Cc1ccccc1)c1ccc(-c2nc(-c3ccncc3)no2)cc1[N+](=O)[O-] | inconclusive: 7.57 µM [inhibitor, partial curve, poor fit]
